Where “and” joins values, the source holds several entries; their conditions need not be identical. Equal entries are not always repeated. Hit rate of the full screen: of about 200,000 compounds, about 4,500 (2.2%) were called active. Inconclusive means that the source gave no clear call. Such entries were picked first, then a sample of the others. Calls follow the shape of the dose curve; as a rule, active = well fitted inhibition curve with a large enough effect; inconclusive = small, poorly fitted or top-dose-only effect, or effect the other way; inactive = flat fitted curve, though single readings scatter. Potencies beside an inconclusive call are fits to weak or partial responses and may not hold up. Some structures have more than one record in an assay (separate samples or runs), and their calls can disagree.
The compounds below were run against Cruzipain (Trypanosoma cruzi) (UniProt P25779) (assay: qHTS Assay for Promiscuous and Specific Inhibitors of Cruzain (without detergent)). Conditions: purified cruzain, Z-FR-AMC fluorescence, no detergent.
Procedure, shortened: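 Purified cruzain at 1.5 nM, pre-incubated 15 min with compound at room temperature in 100 mM sodium acetate pH 5.5, 5 mM DTT, 0.00005% Triton X-100. Reaction started with 2 uM Z-FR-AMC; AMC fluorescence increase over 60 s gives rate.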
Also: nearly all actives have a fitted effect of over 40% in size.
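For max response, negative = inhibition in this document: plate controls were enzyme without inhibitor for no effect and buffer without enzyme for full effect.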
Potency is read from the fitted curve at half-maximal effect; tags tell the direction and shape of the fitted curve.

UniProt P25779, sequence (P25779 whole entry, looked up): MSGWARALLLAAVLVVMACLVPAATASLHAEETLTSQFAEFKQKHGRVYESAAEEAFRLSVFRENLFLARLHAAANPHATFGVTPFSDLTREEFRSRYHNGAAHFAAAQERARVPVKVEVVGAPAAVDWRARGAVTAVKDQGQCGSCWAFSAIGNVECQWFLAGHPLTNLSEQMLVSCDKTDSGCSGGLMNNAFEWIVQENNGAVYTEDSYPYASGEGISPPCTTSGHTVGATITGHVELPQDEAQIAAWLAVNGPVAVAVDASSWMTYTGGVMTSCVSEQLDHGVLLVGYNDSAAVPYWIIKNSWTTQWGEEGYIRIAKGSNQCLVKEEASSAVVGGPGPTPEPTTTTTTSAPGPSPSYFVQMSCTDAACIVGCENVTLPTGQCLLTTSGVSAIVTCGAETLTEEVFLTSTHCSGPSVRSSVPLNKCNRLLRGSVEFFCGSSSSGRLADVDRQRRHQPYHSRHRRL

| Structure (SMILES) | Potency | max response, negative = inhibition |
| --- | --- | --- |
| Cc1cc2oc(=O)cc(-c3ccccc3)c2c(C)c1/C=C/c1ccc(F)cc1 | inconclusive: 31.6 µM [inhibitor, single point] | – |
| COc1ccc(-c2nn(-c3ccccc3)cc2C(=O)Nc2nccs2)cc1 | inconclusive: 31.6 µM [inhibitor, single point] | – |
| CC1=CC2=NC(=O)/C(=C\c3ccc(-c4ccc(Cl)cc4)o3)C(=N)N2O1 | inconclusive: 39.8 µM [inhibitor, single point] | – |
| O=C(COc1ccccc1)N1CCN(S(=O)(=O)c2ccc(Cl)cc2)CC1 | inconclusive: 31.6 µM [inhibitor, single point] | – |
| COc1ccc(OC)c(N(CC(=O)N2CCCCC2)S(=O)(=O)c2ccc(OC)c(OC)c2)c1 | inconclusive: 39.8 µM [activator, single point] | – |
| O=C(N/N=C/C=C/c1ccc([N+](=O)[O-])cc1)c1cccs1 | inconclusive: 25.1 µM [inhibitor, single point] | – |
| Cc1ccccc1Nc1nc(N)nc(COC(=O)c2cccc(S(=O)(=O)N(C)c3ccccc3)c2)n1 | inconclusive: 31.6 µM [inhibitor, single point] | – |
| COc1ccc(S(=O)(=O)Nc2ccccc2-c2nnn(CC(=O)Nc3ccccc3OC)n2)cc1 | inconclusive: 39.8 µM [inhibitor, single point] | – |
| CCCCn1c(SCC(=O)NCc2ccco2)nc2c(sc3ccccc32)c1=O | active: 10 µM | – |
| O=c1oc2ccc(Cl)cc2cc1-c1ccccc1 | inconclusive: 31.6 µM [inhibitor, single point] | – |
| CCCCNC(=O)CSc1nc2ccc(N3CCOCC3)cc2c(=O)n1CCc1ccccc1 | inconclusive: 39.8 µM [activator, single point] | – |
| CCOc1cc2c3c(c1)C(C)CC(C)(C)N3C(=O)C2=O (stereo not drawn) | inconclusive: 39.8 µM [activator, single point] | – |
| CCOc1ccc(NC(=O)Cn2nnc(C(=O)NCCc3ccc(OC)c(OC)c3)c2N)cc1 | inconclusive: 31.6 µM [activator, single point] | – |
| CCOc1cc(C#N)c(NC(=O)c2ccc(OC)c(S(=O)(=O)N3CCCCC3)c2)cc1OCC | inconclusive: 25.1 µM [activator, partial curve] | – |
| COc1ccc(NC(=O)Cn2c(=O)n(Cc3ccco3)c(=O)c3sc4ccccc4c32)cc1OC | inconclusive: 12.6 µM [activator, partial curve] | – |
| CCCC1S/C(=N/N=C/c2cccs2)NC1=O (stereo not drawn) | inconclusive: 39.8 µM [inhibitor, single point] | – |
| Cc1cccc(-c2nnn(Cc3nnc(NC(=O)c4ccccc4)s3)n2)c1 | inconclusive: 39.8 µM [inhibitor, single point] | – |
| CCc1nnc(NC(=O)c2cccc(S(=O)(=O)N(C)c3ccccc3)c2)s1 | inconclusive: 31.6 µM [inhibitor, single point] | – |
| COc1cccc(-c2nnc3n2N=C(c2cccc(Br)c2)CS3)c1 | active: 7.94 µM | – |

| Structure (SMILES) | Potency | max response, negative = inhibition |
| --- | --- | --- |
| O=C(NC1c2ccccc2-c2ccccc21)c1ccccc1 | inconclusive: 10 µM [inhibitor, partial curve, poor fit] | – |
| CC(C)c1ccc(C(C(=O)NC(C)(C)C)N(C(=O)CNC(=O)c2ccco2)c2cccnc2)cc1 (stereo not drawn) | inconclusive: 31.6 µM [activator, single point] | – |
| CCOc1cc(C#N)c(NC(=O)c2ccc(OC)c(S(=O)(=O)N3CCCC3)c2)cc1OCC | inconclusive: 39.8 µM [activator, single point] | – |
| CC(=O)O[C@@]1(C(C)=O)CCC2C3CC(C)C4=CC(=O)CC[C@@]4(C)C3CC[C@]21C (stereo partly drawn) | inconclusive: 25.1 µM [activator, single point] | – |
| Nc1ncnc2c1c(-c1ccc(Oc3ccccc3)cc1)cn2C1CCCC1 | inconclusive: 31.6 µM [inhibitor, single point] | – |
| CCOc1ccccc1NC(=O)C1CCCN(S(=O)(=O)c2ccc(OC)c(C)c2)C1 (stereo not drawn) | inconclusive: 39.8 µM [activator, single point] | – |
| CC(Oc1ccc(-c2ccccc2)c(F)c1)c1ccn(S(=O)(=O)c2ccc(Br)cc2)n1 (stereo not drawn) | inconclusive: 25.1 µM [inhibitor, single point] | – |
| CCOc1ccc(CCNC(=O)C2=C(C)C(=O)OC23CCC(C)CC3)cc1OCC (stereo not drawn) | inconclusive: 25.1 µM [activator, single point] | – |
| COc1ccc(C)cc1N(C)C(=O)c1sc2nc3n(c(=O)c2c1C)CCCCC3 | – | inactive: 12.7% |
| Cc1csc2nc(-c3cccc(NC(=O)c4cccc(F)c4)c3)cn12 | inconclusive: 15.8 µM [inhibitor, single point] | – |
| COc1ccccc1-n1cnc2c(c1=O)c1nc3ccccc3nc1n2CCc1ccccc1 | inconclusive: 20 µM [activator, partial curve] | – |
| COc1cccc(N=Nc2c(=O)[nH]n3c(=O)cc(C)[nH]c23)c1 | inconclusive: 10 µM [inhibitor, partial curve] | – |
| Cc1ccc(NC(=O)c2ccc3nc(Cc4ccccc4)oc3c2)cc1F | inconclusive: 39.8 µM [inhibitor, single point] | – |
| Cc1ccc(C(=O)N/C(=C\c2ccc(-c3ccc([N+](=O)[O-])cc3)o2)C(=O)NC2CCS(=O)(=O)C2)cc1 (stereo not drawn) | inconclusive: 39.8 µM [activator, single point] | – |
| CCn1nc(C(=O)OCC(=O)Nc2nc(-c3ccc(OC)cc3)cs2)c2ccccc2c1=O | inconclusive: 39.8 µM [inhibitor, single point] | – |
| O=C1C2CC=C(Cl)CC2C(=O)N1CN(Cc1ccco1)CN1C(=O)C2CC=C(Cl)CC2C1=O (stereo not drawn) | inconclusive: 31.6 µM [activator, single point] | – |
| O=C(Nc1cccc(S(=O)(=O)N2CCCC2)c1)c1ccc2c(=O)n3c(nc2c1)CCCCC3 | inconclusive: 39.8 µM [activator, single point] | – |
| Cc1nccc2c1[nH]c1ccccc12 | active: 25.1 µM and active: 39.8 µM | inactive: -23.9% and inactive: -19.2% |

— PubChem BioAssay AID1476 (National Center for Advancing Translational Sciences (NCATS), 2009)
